Out of some 52,000 compounds screened, about 1,700 (3.3%) were called active. Rule as the data show it: active = survival mostly below about 52% (no sharp cut-off); inactive = mostly above about 56%. Some of the results follow.

This assay has as its system Wild type. In words: growth inhibition of S. aureus wild type versus tarO mutant, primary screen, teichoic acid synthesis inhibitors, RN4220, OD600 (AID 463173). Conditions: S. aureus RN4220 wild type/DeltatarO growth, OD600, 18 h, active compounds read low, screened at 18.75 µg/mL (by protocol).
In the case of `COc1cccc2cc(-c3nc4sc5c(c4c(=O)[nH]3)CCC(C(C)(C)C)C5)c(=O)oc12` (centres undefined), the survival is inactive: 95%.

For the compound `COc1ccc(S(=O)(=O)c2c(Nc3cccc(Cl)c3)sc(C(=O)c3ccccc3)c2N)cc1`, the survival was inactive: 91%.

`Cc1cc2c(cc1S(=O)(=O)NCc1ccc(F)cc1)OCCN2C`: the survival was inactive: 80%.

On to `CCCCN(Cc1cc2cc(C)ccc2[nH]c1=O)C(=O)c1cccc(Cl)c1`, for which the survival is inactive: 93%.

As for `CCc1ccc(NC(=O)Cn2ncn3c(cc4ccccc43)c2=O)cc1`, the survival is inactive: 131%.

`Cc1ccc2c(=O)cc(C(=O)Nc3c(C)cccc3C)oc2c1`: the survival is inactive: 87%.

Consider `CC1CCN(S(=O)(=O)c2ccc3c(ccn3CC(=O)NCc3ccccc3F)c2)CC1`, for which the survival was inactive: 53%.

For `Cc1ccc(C)c(NC(=O)CN2CCN(C3CCCCC3)C(=O)C2=O)c1`, the survival is inactive: 78%.

With `COc1cccc(CNC(=O)c2ccc3c(c2)nc2n3CCOC2)c1OC`, the survival was inactive: 55%.

As to `CCn1cc(C(=O)NCCc2ccc(OC)c(OC)c2)c(=O)c2cc(S(=O)(=O)N3CCOCC3)ccc21`, the survival is inactive: 74%.

Turning to `Cc1ccc(C(=O)Nc2nnc(S(=O)(=O)N(C)Cc3ccco3)s2)cc1`, the survival was inactive: 51%.

In the case of `CCc1nc2c(cnn2-c2ccc(C)cc2)c(=O)n1-c1ccc(C)cc1`, the survival was active: 18%.

Take `O=C(Nc1cccc(C(F)(F)F)c1)c1cc(-c2ccc(Cl)cc2)on1`: the survival was inactive: 83%.

Turning to `Cc1ccc(-c2noc(C(C)NC(=O)c3ccco3)n2)cc1` (centres undefined), the survival is inactive: 86%.

Turning to `COc1ccc(S(=O)(=O)c2c(SC)nn(CC(=O)Nc3ccc(C)c(Cl)c3)c2N)cc1`, the survival is inactive: 88%.

Turning to `COc1ccc2c(CNC3CCCC3)c(C(=O)O)n(Cc3ccccc3C)c2c1`, the survival is inactive: 92%.

As for `CCc1nn2c(=O)cc(COC(=O)c3cccc(NC(=O)c4ccccc4C)c3)nc2s1`, the survival is inactive: 91%.

On to `CC(C)(C)C1CCc2nc(NC(=O)COc3ccccc3[N+](=O)[O-])sc2C1` (centres undefined), for which the survival is inactive: 119%.

Take `COc1ccccc1CNCC(=O)NCc1ccc(C)cc1`: the survival was inactive: 105%.

In the case of `COCCCNC(=O)CSc1nc2cc3c(cc2c(=O)n1CCCCCC(=O)NCCc1ccc(OC)c(OC)c1)OCO3`, the survival is inactive: 63%.

With `O=C(NCc1ccc2c(c1)OCO2)c1ccc(S(=O)(=O)N2CCCC2)cc1`, the survival was inactive: 100%.

In the case of `O=C(NCc1ccc(F)cc1)c1ccc2c(c1)N(Cc1c(F)cccc1Cl)C(=O)CS2`, the survival was inactive: 65%.

Regarding `Cc1cc(C)c2c(=O)cc(C(=O)Nc3sc4c(c3C#N)CCCC4)oc2c1`, the survival was inactive: 32%.

`CC1=C(c2ccc(C)cc2)S(=O)(=O)N(Cc2ccc(C(=O)NCc3ccccc3)cc2)C1=O`: the survival is inactive: 81%.

As to `Cc1ccccc1NC(=O)CN1C(=O)C2(SCC(=O)N2c2ccc(F)cc2)c2ccccc21` (centres undefined), the survival was inactive: 71%.

Take `O=C(Nc1cc(C(F)(F)F)ccc1Cl)c1noc2c1CCCCC2`: the survival is inactive: 83%.

In the case of `COc1ccc2c(c1)c(CC(=O)Nc1cccc(F)c1C)c(C)n2C(=O)c1ccc(Cl)cc1`, the survival is inactive: 152%.

For `O=C(Nc1ccc(F)c(F)c1)c1cc(S(=O)(=O)N2CCc3ccccc32)ccc1F`, the survival was inactive: 72%.

Regarding `COc1cccc(-n2ccn(CC(=O)Nc3ccccc3F)c(=O)c2=O)c1`, the survival was inactive: 83%.

On to `Cc1ccc(CNS(=O)(=O)c2cc(C(=O)Nc3ccc(C(C)C)cc3)ccc2F)cc1`, for which the survival was inactive: 59%.

In the case of `COc1ccc(C2=C(C)C(N3CCC(C(=O)NCc4ccco4)CC3)=NS2(=O)=O)cc1`, the survival was inactive: 56%.

`CCc1ccccc1NC(=O)Cn1cc(C(=O)c2ccc(Cl)cc2)c(=O)c2ccc(C)nc21`: the survival is inactive: 71%.

On to `CCN(CC)c1ccc(NC(=O)c2ccccc2F)cc1`, for which the survival was inactive: 115%.

Regarding `Cc1ccc(CNC(=O)CSCc2nc(-c3ccc(Cl)cc3)oc2C)cc1`, the survival is inactive: 88%.

As for `COc1cccc(-c2ccnc3c(-c4ccccc4)c(C)nn23)c1`, the survival is inactive: 58%.

Take `COc1ccc(N2C(N)=C(C#N)C(c3ccc(O)c(OC)c3)C3=C2CCCC3=O)cc1` (centres undefined): the survival was inactive: 89%.

With `CCOC(=O)c1[nH]c2ccccc2c1NC(=O)c1cc(OC)cc(OC)c1`, the survival was inactive: 62%.

`COc1ccc(-c2cc(C(=O)NCCc3ccc(Cl)cc3)[nH]n2)cc1`: the survival is inactive: 71%.

Turning to `Cc1ccccc1-c1nc2c3c(-c4ccccc4)c(-c4ccccc4)oc3ncn2n1`, the survival is inactive: 77%.

In the case of `Cc1cccc(N2CCN(C(=O)COCc3cc(-c4ccc5c(c4)OCO5)on3)CC2)c1C`, the survival is inactive: 78%.

Turning to `CCOc1ccc(NC(=O)N2CCC(CN3CCC(C)CC3)CC2)cc1`, the survival was inactive: 127%.

`COc1ccc(-c2cc(C(=O)Nc3cccc(C(C)=O)c3)no2)cc1OC`: the survival is inactive: 78%.

In the case of `COC(=O)c1ccccc1NC(=O)COCc1cc(-c2cccs2)on1`, the survival is inactive: 88%.

In the case of `Cc1ccc(CN(C(=O)c2ccc(F)cc2)c2ccccn2)o1`, the survival is inactive: 81%.

Consider `Cc1ccc(CNc2nc3c(c(=O)n(C)c(=O)n3C)n2Cc2ccc(Cl)cc2)cc1`, for which the survival was inactive: 71%.

With `CCOc1ccc2nc(Cl)c(CN(Cc3ccco3)C(=O)N(C)C)cc2c1`, the survival is inactive: 109%.

As to `CCn1c(=O)n(-c2ccc(F)c(Cl)c2)c(=O)c2sc3ccccc3c21`, the survival is inactive: 90%.

Consider `Nc1nonc1C(=O)N1CCCC1`, for which the survival was inactive: 108%.

As for `CN(C)c1ccc(NC(=O)CSc2nc(-c3ccco3)cc(C(F)(F)F)n2)cc1`, the survival is inactive: 79%.

As to `O=C(COc1ccccc1Cl)N(Cc1ccco1)Cc1ccco1`, the survival was inactive: 81%.

Turning to `Cc1ccccc1C(=O)Oc1cc(-c2ccc3c(c2)OCO3)cc(=O)c2c(C)oc(C)c12`, the survival is inactive: 107%.

For `O=C(NCc1ccc(F)cc1)C1CCN(S(=O)(=O)c2ccc3c(c2)CCCN3C(=O)C2CCC2)CC1`, the survival was inactive: 65%.

In the case of `CCOc1cc(CNC(=O)c2ccc3c(c2)nc2n3CCCCC2)ccc1OC`, the survival was inactive: 117%.

On to `Cc1ccc(Cl)cc1NC(=O)c1cc2c(=O)n3cccc(C)c3nc2n1C`, for which the survival was inactive: 81%.

On to `Cc1ccc(S(=O)(=O)c2cnc(SCC(=O)Nc3ccccc3C(F)(F)F)[nH]c2=O)cc1C`, for which the survival was inactive: 81%.

As to `O=C(NCc1ccc(F)cc1)c1cnc(N2CCOCC2)c2ccccc12`, the survival is inactive: 74%.

With `Cc1cc(C)cc(NC(=O)C2CCCN(c3cnccn3)C2)c1` (centres undefined), the survival is inactive: 84%.

`CC1CCN(CCCNC(=O)CN2C(=O)CSc3ccc(S(=O)(=O)N4CCC(C)CC4)cc32)CC1`: the survival is inactive: 78%.

Take `COc1ccc(-n2c(=O)c3c4c(sc3n(CC(=O)N3CCCCC3C)c2=O)CCC4)c(OC)c1` (centres undefined): the survival was inactive: 79%.

Consider `Cc1ccc(N2CCN(C(=O)c3ccc(Nc4nc5ccccc5n5nnnc45)cc3)CC2)c(C)c1`, for which the survival is inactive: 94%.

Consider `COc1ccccc1N1CCN(S(=O)(=O)c2c(C)sc3ncn(CC(=O)Nc4ccc(C(C)C)cc4)c(=O)c23)CC1`, for which the survival was inactive: 90%.

As for `COc1ccc(Cl)cc1NC(=O)CSc1nc2c([nH]c3ccccc32)c(=O)n1-c1ccccc1`, the survival was inactive: 72%.

Turning to `Cc1cccc(Cn2c(=O)n(CCCCC(=O)NCc3ccc4c(c3)OCO4)c(=O)c3ccccc32)c1`, the survival is inactive: 91%.

Consider `Cc1ccccc1C(=O)NC1CCN(CC(=O)NC(C)(C)C)CC1`, for which the survival is inactive: 100%.

As for `O=C(NC1CCCC1)c1cnn(-c2ccc(F)cc2F)c1C1CCNCC1`, the survival was inactive: 22%.

Take `Cc1ccc(C2=NC(c3ccc(F)cc3)=Nc3ccc(C)cc3N2)cc1`: the survival is inactive: 79%.

Turning to `S=C(Nc1ccccc1)N1CCOCC1`, the survival was inactive: 109%.

Regarding `CCSc1nnc2c(n1)OC(c1ccc(OC)cc1OC)N(C(C)=O)c1ccccc1-2` (centres undefined), the survival was inactive: 78%.

As for `CCN(CC)CCNC(=O)CN1C(=O)c2cccnc2Oc2ccc(C)cc21`, the survival is inactive: 74%.

As for `COc1ccc(CCNC(=O)Cn2c(=O)n(-c3ccc(OC)c(OC)c3)c(=O)c3ccccc32)cc1OC`, the survival was inactive: 95%.

For `COc1ccccc1OCCCCn1c(C2CC(=O)N(c3ccccc3Cl)C2)nc2ccccc21` (centres undefined), the survival was inactive: 85%.

`Cc1ccc(NC(=O)/C(C#N)=C/c2ccccc2Cl)cc1C`: the survival was inactive: 63%.

Consider `CN(Cc1ccccc1)Cc1c(O)ccc2c(=O)c(-c3ccccc3)c(C(F)(F)F)oc12`, for which the survival was inactive: 130%.

On to `Cc1ccc(NC(=O)CN2c3ccccc3S(=O)(=O)c3ccccc32)cc1F`, for which the survival was inactive: 51%.

Regarding `CCN(C(=O)c1sc2cc(OC)ccc2c1Cl)c1ccccc1`, the survival is active: -9%.

In the case of `CC(C)NC(=O)COc1ccc(S(=O)(=O)N2CCCC2)cc1`, the survival was inactive: 94%.

Consider `Cn1cc(C(=O)O)c(=O)c2ccccc21`, for which the survival was inactive: 101%.

As to `Cc1nc(-c2ccc(S(=O)(=O)N3CCN(c4cccc(Cl)c4)CC3)cc2)co1`, the survival was inactive: 65%.

Take `CC(=O)c1cccc(NC(=O)c2sc(-n3nc(C)c(CCC(C)C)c3C)nc2C)c1`: the survival is inactive: 94%.

`COc1cc(NC(=O)Cn2c(=O)n(CC(=O)NCCc3ccc(OC)c(OC)c3)c(=O)c3sccc32)cc(OC)c1`: the survival was inactive: 88%.

On to `N#Cc1ccccc1NC(=O)c1cccs1`, for which the survival is inactive: 102%.

Regarding `COc1cccc(Nc2sc(C(=O)c3ccc4c(c3)OCO4)c(N)c2S(=O)(=O)c2ccccc2)c1`, the survival was inactive: 85%.

For the compound `COc1ccc(-n2nnnc2C2CCN(S(=O)(=O)c3ccc(F)cc3Cl)CC2)cc1`, the survival is inactive: 85%.

As to `COc1ccc(N2CC(NC(=O)Cc3cccs3)CC2=O)cc1` (centres undefined), the survival is inactive: 22%.

`CSc1ccc(CNC(=O)Cc2csc3ccccc23)cc1`: the survival is inactive: 89%.

For `CC(=O)NCCNc1nc2c(-c3cccc(C)c3)nnn2c2ccc(Cl)cc12`, the survival is inactive: 89%.

Take `COc1ccc(C2=NC3(CCCCCC3)N(CC(=O)Nc3ccc(C)c(C)c3)C2=O)cc1`: the survival is inactive: 83%.

For the compound `CCn1c(C)c(C)c2cc(C(=O)NCc3ccc(N(C)C)cc3)ccc21`, the survival is inactive: 126%.

For the compound `COc1ccc(CNC(=O)CN(c2cc(C(F)(F)F)ccc2Cl)S(C)(=O)=O)cc1`, the survival was inactive: 64%.

Source of the values: PubChem BioAssay AID463173 (ICCB-Longwood Screening Facility, Harvard Medical School, 2010).
